# From article PMC4242493
# The other results are listed elsewhere or left out. The list includes weakly bound sequences.
# Molecular target: MaxL homodimer (UniProt P61244)
# Test: universal protein-binding microarray (PBM)
# Settings: PBS-based mixture, 10 nM His-tagged protein dimer, 2% milk, 200 ng/uL BSA, 50 ng/uL salmon testes DNA, 0.02% TX-100; detection with Alexa 488 anti-His …; high values mean tight binding; most listed sequences are background and not binding sites; double strand, one strand shown
# Chain of UniProt P61244 (P61244 whole entry): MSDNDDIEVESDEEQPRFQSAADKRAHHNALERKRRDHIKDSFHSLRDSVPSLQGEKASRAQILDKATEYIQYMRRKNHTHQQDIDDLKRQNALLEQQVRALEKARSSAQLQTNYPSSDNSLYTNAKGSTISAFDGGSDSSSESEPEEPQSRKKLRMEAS
row,Sequence,binding signal (normalized occupancy)
1,ACGCCTCT,0.0792
2,CACGATAC,0.0922
3,ATTGACGA,0.0813
4,CATAGGAG,0.0813
5,CCTTGTCC,0.0743
6,AATCTCCC,0.0748
7,CGCGTCTC,0.0739
8,CTGTGAAC,0.0752
9,CCCTTAAA,0.0743
10,CTTTCGGA,0.0677
11,CAACGTTC,0.0755
12,CGGCTTAA,0.0644
13,CGGTGAAA,0.0722
14,CTCGTCGC,0.0714
15,ACCGGCGG,0.0729
16,CATACGAC,0.0821
17,GCACTTCA,0.0725
18,CTTGTTGA,0.0734
19,CCCTACAA,0.0782
20,ATTGTTTC,0.0729
21,GGGCAACA,0.0764
22,CGTATAAG,0.0761

row,Sequence,binding signal (normalized occupancy)
1,CGGTCGTC,0.0684
2,ACGCGCAG,0.0787
3,AATGGGCA,0.0791
4,ATCAGTCG,0.0744
5,GCTAGGTA,0.0747
6,CATTTAAC,0.0804
7,CCCCCATC,0.0843
8,ATCATCAG,0.0786
9,CCGCAAGA,0.0718
10,AATCTAAC,0.0749
11,CTGCACGC,0.0997
12,AAACCTAC,0.0764
13,CACCTCGG,0.0772
14,AAAATTTA,0.0675
15,GGGTCCGA,0.0737
16,CAATCCGA,0.074
17,TGGGAACA,0.0807
18,ATTGTTAG,0.0774
19,ATGAAAAT,0.0785
20,ATGGGACG,0.0781
21,AAGGTGCT,0.0733
22,AGACTCAC,0.0696

row,Sequence,binding signal (normalized occupancy)
1,ACGTCCAA,0.0765
2,ACATAGAT,0.0774
3,AATTGTGG,0.0762
4,CAGGTGGG,0.101
5,ATTTTATA,0.0812
6,AACTCGGC,0.069
7,AAGCTAGA,0.0705
8,ACAGTCGA,0.0696
9,AGTAGCCG,0.0691
10,CCAGTCGC,0.0722
11,ATGGGTAA,0.078
12,AAGCCTGT,0.0732
13,GGAACACC,0.0733
14,GCCGCATA,0.0742
15,GGGCGCTA,0.0692
16,ACCATTGC,0.0746
17,CTAGGACC,0.0697
18,CTGCTACC,0.0844
19,ATGATAGC,0.0828
20,ATTGGGCG,0.0761
21,AAAAATGA,0.0781
22,AGATTGAC,0.0796

row,Sequence,binding signal (normalized occupancy)
1,CCCTACAC,0.0837
2,ACGGATAA,0.0801
3,CGTCTATA,0.0838
4,ACGCCGAC,0.0741
5,AAGTATTC,0.075
6,ACTCCCGA,0.0719
7,AGCCTACT,0.0724
8,ACACGCTA,0.0915
9,AACTGAGT,0.0721
10,AGGACTTC,0.0699
11,CAAATTTC,0.0715
12,ATGCAATC,0.0819
13,AATCTGTC,0.0759
14,CACTCAGG,0.0732
15,ACTAGTCT,0.0733
16,GAATTTGA,0.073
17,AACTAGCC,0.0676
18,CAGCGAGG,0.0778
19,AGACCAGC,0.0672
20,TCGTTTAA,0.0745
